These results are taken from PubChem BioAssay AID488969 (Vanderbilt High Throughput Screening Facility, 2010).

Structures are written as SMILES. Whole data set: some 110,000 compounds, median “z-score” near -0.1, cut for the highest 2% near 2. This is one part of the list. The source made the active and inactive calls.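 Rule for the calls: active = z-score in the third read window above 3 or below -3; inactive = the rest.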

This test deals with Metabotropic glutamate receptor 8 (Rattus norvegicus) (UniProt P70579). Briefly: mGluR8 Gi/Go-coupled signaling modulation – cell-based, rat, thallium flux, HTS, primary screen (AID 488969). As to conditions: HEK293 rat mGluR8, GIRK (G protein-gated inwardly rectifying potassium channel) thallium flux, FluoZin2; at 10 µM; stronger effect = higher value; submaximal glutamate (EC20) added with thallium.
UniProt P70579, sequence (P70579 whole entry, looked up): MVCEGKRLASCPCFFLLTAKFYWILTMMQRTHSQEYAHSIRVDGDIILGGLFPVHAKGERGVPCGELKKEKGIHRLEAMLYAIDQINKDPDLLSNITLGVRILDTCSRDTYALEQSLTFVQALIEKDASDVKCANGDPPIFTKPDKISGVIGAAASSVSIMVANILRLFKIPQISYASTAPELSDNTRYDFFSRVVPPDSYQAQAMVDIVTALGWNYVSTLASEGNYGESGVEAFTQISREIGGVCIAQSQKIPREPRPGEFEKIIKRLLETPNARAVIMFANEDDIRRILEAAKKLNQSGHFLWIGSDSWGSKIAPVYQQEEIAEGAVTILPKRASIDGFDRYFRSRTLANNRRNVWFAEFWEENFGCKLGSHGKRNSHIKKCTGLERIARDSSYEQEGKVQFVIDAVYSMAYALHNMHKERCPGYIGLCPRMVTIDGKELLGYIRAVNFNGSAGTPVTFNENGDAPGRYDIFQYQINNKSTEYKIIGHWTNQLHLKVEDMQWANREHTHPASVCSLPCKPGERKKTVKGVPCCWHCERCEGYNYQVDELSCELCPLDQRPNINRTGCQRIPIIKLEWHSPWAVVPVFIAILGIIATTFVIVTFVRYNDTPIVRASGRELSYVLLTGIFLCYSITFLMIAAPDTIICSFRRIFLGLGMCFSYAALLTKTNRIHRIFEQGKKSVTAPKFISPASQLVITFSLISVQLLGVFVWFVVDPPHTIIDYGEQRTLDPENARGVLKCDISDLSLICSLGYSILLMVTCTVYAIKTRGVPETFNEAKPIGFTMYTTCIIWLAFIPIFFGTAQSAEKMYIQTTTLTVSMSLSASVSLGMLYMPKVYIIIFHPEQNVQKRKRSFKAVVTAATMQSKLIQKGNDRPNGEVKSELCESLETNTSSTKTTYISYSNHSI
In turn, `CCOC(=O)CC1C(=O)NC2CCCCC2N1C(=O)Nc1ccc(Cl)cc1` (stereo unspecified) displayed a z-score of 0.146.
The same measure for `CCOC(=O)c1sc2nc(SCC(=O)NCc3ccco3)n(Cc3ccccc3)c(=O)c2c1C`: -0.202; for `Cc1c([N+](=O)[O-])cc(C(=O)Oc2ccc(Br)cc2C(=S)N2CCCCC2)cc1[N+](=O)[O-]`: active: 3.58; for `CN(C)S(=O)(=O)c1cccc(NC(=O)COC(=O)CCC(=O)c2ccc(F)cc2)c1`: -0.326.
With `CCCSc1nnc(Cc2cc(=O)[nH]c(=O)[nH]2)n1-c1cc(C)ccc1C` the figure was -0.222; with `COc1cc(/C=C/C(=O)OCC(=O)Nc2cccc(Oc3ccccc3)c2)ccc1O`, 0.137; with `O=C(N/N=C1/CC2C=CCC12)c1ccco1` (stereo unspecified), -0.0648.
In the case of `CCC(C(=O)Nc1nc(C)cs1)c1ccccc1` (stereo unspecified), the z-score was -0.691.
The same measure for `Cc1cccc2cc(COC(=O)c3ccccc3)c(=O)[nH]c12`: -0.202.
For `O=C(NC1CCCCC1)NC1CC2CCCC(C1)N2C1CCCC1` (stereo unspecified), the z-score is -0.0898.
With `COC(=O)NCc1ccc2c(c1)OCO2` the figure was 0.119; with `CCc1ccc(C(=O)Nc2nnn(CC)n2)cc1`, 0.223.
With `COC(=O)[C@H](CCSC)NC(=O)NCc1ccccc1F` the figure was 0.587; with `COc1cc(C(=O)NCc2ccc(-c3nc4ccccc4s3)cc2)cc(OC)c1OC`, 0.0202.
The same measure for `O=C(Nc1ccc(Cl)cc1)c1ccc(-n2cncn2)c([N+](=O)[O-])c1`: -0.213.
On to `O=C(Nc1ccccc1)c1c(F)cccc1F`, for which the z-score is -0.432.
In the case of `CCSC1=C(C#N)C(c2ccccc2Cl)CC(=O)N1` (stereo unspecified), the z-score is -1.63.
As to `COc1ccc(NC(=O)c2cc(S(=O)(=O)NCC3COc4ccccc4O3)ccc2F)cc1` (stereo unspecified), the z-score is 0.0414.
With `Cn1c(=O)c2c(nc(N3CCOCC3)n2CCSc2ncccn2)n(C)c1=O` the figure was -0.14; with `OCC(Cc1ccccc1)NCc1ccccc1C(F)(F)F` (stereo unspecified), 0.279.
Take `O=C1CC(c2ccccc2F)c2cc3c(cc2N1)CCC3` (stereo unspecified): the z-score was -0.312.
The same measure for `COc1cc(CNCCSc2nnnn2C)cc(Br)c1OCc1ccc(F)cc1`: 1.66; for `CCOCCn1c(CN2CCN(c3cccc(Cl)c3)CC2)nc2c1c(=O)n(C)c(=O)n2C`: -0.0773.
The same measure for `C=CCNC(=O)NC(=O)COC(=O)/C(C#N)=C/c1cc(C)n(CCC(C)C)c1C`: -0.372; for `Cc1ccccc1C(=O)Nc1ccc(C(=O)NNC(=O)CCCOc2ccc(Cl)cc2Cl)cc1`: -0.102; for `Cc1nnc(NC(=O)c2ccc3ccccc3c2)o1`: 0.744.
In turn, `CNC(=O)c1cc2c(=O)n3cccc(C)c3nc2n(C(C)C)c1=N` returned a z-score of 0.569.
As for `O=C(OC(c1ccccc1)c1nccc2ccccc12)c1cccc([N+](=O)[O-])c1` (stereo unspecified), the z-score was -0.443.
On to `O=C(CCc1ccccc1)Nc1cc(Cl)ccc1O`, for which the z-score was -0.624.
Take `CCCCS(=O)(=O)CC(COc1ccccc1)OC(=O)c1ccccc1` (stereo unspecified): the z-score was -0.779.
Consider `CN(CCc1ccccn1)C1CC(=O)N(c2ccc(Cl)cc2)C1=O` (stereo unspecified), for which the z-score is -0.096.
The same measure for `Cn1c(=O)c2c(nc(SCC(=O)N3CCc4ccccc43)n2Cc2ccc(F)cc2)n(C)c1=O`: -0.298.
In the case of `N#Cc1cc(C#N)c(N2CCN(c3cccc(Cl)n3)CC2)nc1N`, the z-score is -0.256.
The same measure for `COc1ccc(C(=O)OCCN2C(=O)c3ccccc3C2=O)cc1`: 0.369.
As to `NC(=O)CNC(=O)[C@@H]1CC2(CC(c3ccc(Cl)cc3)=NO2)CN1C(=O)c1ccc(Br)cc1` (stereo partly specified), the z-score is -0.0418.
The same measure for `O=C(c1ccco1)N1CCN(c2ncnc3scc(-c4ccccc4)c23)CC1`: -0.262; for `COc1cc(CNCCO)cc(Br)c1OCc1cccs1`: 0.766.
With `CCCCCCCCCCCCCCCC[n+]1ccc(C(N)=O)cc1` the figure was -0.0531.
For the molecule `CC(C)NC(=O)CSc1nc(-c2cccs2)cc(-c2ccccc2)c1C#N`, the z-score is -0.365.
In the case of `O=c1oc(-c2ccco2)nc2sc3c(c12)CCCC3`, the z-score worked out at 0.57.
Take `CCOC(=O)C1=C(C)NC(C)=C(C(=O)OCC)C1/C=C/c1ccccc1OC`: the z-score was -0.187.
As for `CC(C)(C)c1ccc(OCC(=O)OCCNC(=O)c2cccnc2)cc1`, the z-score is -0.171.
The same measure for `O=C(Nc1ccc(N2CCOCC2)c(F)c1)c1ccncc1`: -0.174; for `Cc1ccc(C(=O)N[C@H](C(=O)OCC(=O)c2ccc[nH]2)C(C)C)cc1`: 0.173.
In turn, `O=C(c1cccc(S(=O)(=O)N2CCCCC2)c1)N1CCN(S(=O)(=O)c2ccc(F)cc2)CC1` had a z-score of 0.0439.
`Cc1ccc(C(=O)Nc2cnc3ccccc3c2)cc1`: the z-score is -0.176.
As for `CC1(C)Cc2c(C#N)c(N3CCN(C(=O)c4ccccc4Cl)CC3)nc(-c3ccco3)c2CS1`, the z-score is -0.77.
With `CCOC(=O)N1CCN(C(=O)CSc2nnc(-c3c[nH]c4ccccc34)n2CCOC)CC1` the figure was -0.338; with `CS(=O)(=O)N(Cc1ccccc1)c1ccc(C(=O)N2CCN(c3cccc(Cl)c3)CC2)cc1`, -0.336; with `COc1ccc(NC(=O)c2cccnc2)c(OC)c1`, -0.135.
Take `CCOc1ccc(-c2n[nH]c(C)c2Oc2ccccc2OC)c(O)c1`: the z-score was -0.969.
Regarding `Cc1cc(C)cc(-c2nnc(SCC(=O)N3CCN(C(=O)c4ccco4)CC3)o2)c1`, the z-score is -1.82.
For the molecule `C=CCSc1nc2ccccc2n1S(=O)(=O)c1ccc(C)cc1`, the z-score is -0.0464.
The same measure for `Cc1ccc(Nc2nc(N)c([N+](=O)[O-])c(NCc3ccco3)n2)cc1C`: 0.169.
For the molecule `Cc1cc(C(=O)CN2CCC(C)CC2)c(C)n1-c1ccccc1F`, the z-score amounted to 0.0395.
The same measure for `CCC(=O)NC(=S)Nc1ccc(NC(=O)c2ccc(OC)cc2)cc1`: -0.111.
For `O=C(c1cccc(F)c1)N1CCC(N2CCCCCC2)CC1`, the z-score is -1.16.
The same measure for `Cc1nc2cc(C(F)(F)F)ccc2n1C1CCN(CC(=O)NC(C)(C)C)CC1`: -0.421; for `C=CCOC(=O)c1ccc(-n2cncn2)nc1`: -0.247; for `O=C(CCCn1c(=S)[nH]c2cc3c(cc2c1=O)OCO3)NC1CC1`: -0.139.
The same measure for `CCOc1ccccc1OCCn1ncc2ccc(OC)c(OC)c2c1=O`: -0.271; for `CCCCCCNC(=O)c1c(O)c2ccccc2[nH]c1=O`: -0.245; for `C=CCn1c(=O)c(C#N)cc2c(=O)n3ccccc3nc21`: -0.302.
With `CCOC(=O)C(=O)Nc1ccc(S(=O)(=O)N2CCOCC2)cc1OC` the figure was -0.497; with `O=C(NC1CCS(=O)(=O)C1)C1CCCN(S(=O)(=O)c2ccc(Cl)cc2)C1` (stereo unspecified), -0.0767; with `CCCCn1cnc2c(sc3nc4c(cc32)CSC(C)(C)C4)c1=O`, -0.573.
For `Nc1nsnc1C(=O)NCCO`, the z-score is -0.056.
With `O=C(Nc1ccc2c(c1)OCCO2)C1CCN(C(=O)c2ccc(F)cc2)CC1` the figure was -0.178; with `Cc1nc(NCC2CCCO2)c2oc3ccccc3c2n1` (stereo unspecified), -0.493.
With `COc1ccc(-c2cn3nc4c(nc3n2)CCCC4)cc1` the figure was -2.27.
Turning to `COc1ccc(NC(=O)c2ccccn2)cc1`, the z-score is 0.00324.
As for `O=c1[nH]c(=O)n(Cc2ccco2)c2c1C(C(F)(F)F)(C(F)(F)F)N=C(CCc1ccccc1)N2`, the z-score is -0.03.
With `Cc1ccc2c(c1)c1c(n2C)C(=O)CCC1` the figure was -0.768; with `Cc1cc(C(=O)Nc2c(F)cc(F)cc2Br)c(C)o1`, 0.311; with `Nc1ccc2nc(SCC(=O)Nc3ccc(N4CCOCC4)c(Cl)c3)sc2c1`, 0.205.
With `CCN1CCCC1CN(Cc1cc2ccc(C)cc2[nH]c1=O)C(=S)Nc1ccc(OC)cc1OC` (stereo unspecified) the figure was 0.0263.
Take `CC(C(=O)N1CCOCC1)N1c2cccc3cccc(c23)S1(=O)=O` (stereo unspecified): the z-score stood at 0.00257.
As for `Cc1nc2scc(-c3ccccc3)c2c(=O)n1N`, the z-score was -0.583.
With `Cc1ccc(N(CC(=O)N/N=C/c2cccc(Br)c2)S(C)(=O)=O)cc1` the figure was -0.412; with `Cc1cc(C)cc(NC(=O)C(Nc2ccccc2)c2ccccc2)c1` (stereo unspecified), 0.168; with `Cc1cnc(C(=O)Nc2nnc(C)s2)cn1`, 1.98.
For `Fc1ccc(CSc2nc3ncccc3[nH]2)cc1`, the z-score is -0.857.
In turn, `COc1ccc(-c2nn(-c3ccccc3)cc2/C=N/NC(=O)c2cccc(S(=O)(=O)Nc3ccccc3OC)c2)cc1` had a z-score of 0.102.
For the molecule `Cc1cc(C)n(CC(=O)NCc2cc(-c3nn(C)c(=O)c4ccccc34)ccc2C)n1`, the z-score was -0.207.
The same measure for `O=c1c2cc(Br)ccc2nc2n1CCCCC2`: 0.0247; for `O=S(=O)(Nc1ccc(Oc2ncccn2)c(Cl)c1)c1ccc(F)cc1`: 0.0698; for `Nc1nc(-c2ccccc2)cs1`: 0.0667.
With `CNCCCNCc1ccc(SC)cc1` the figure was -0.34.
With `COc1ccc(-c2cc(-c3cccs3)nc(OC)c2C#N)cc1OC` the figure was -0.0839; with `CCN(CC(=O)N1CCOCC1)S(=O)(=O)c1ccc(C)cc1`, 0.278; with `O=C(O)CSc1nc2ccccc2[nH]1`, -0.128.
For `C=CCn1c(O)c(CN2CCN(Cc3ccccc3)CC2)c(C)c(C#N)c1=O`, the z-score was -0.264.
The same measure for `CCOC(=O)C(CCCOc1ccc(C)cc1)C(=O)OCC`: 0.303; for `COc1cc(Br)cc2cc(C(=O)N3CCN(C(=O)c4ccco4)CC3)c(=O)oc12`: -0.705; for `O=C(NCc1ccco1)c1ccccc1NS(=O)(=O)c1ccc2c(c1)OCCO2`: -0.0568.
The same measure for `O=C(c1ccncc1)N1CCN(c2ccc(F)cc2)CC1`: 0.171.
Regarding `Cc1cccc(C)c1NC(=S)NC(=O)c1ccccc1F`, the z-score is active: 7.93.
With `Cc1cccc(N2CCN(S(=O)(=O)c3cnc[nH]3)CC2)c1C`, the z-score is -0.236.
Regarding `Cc1ccc(-n2cc(-c3ccccc3)c3c(NN4CCOCC4)ncnc32)cc1`, the z-score is -0.256.
For the molecule `CCOc1cc(C(=O)Nc2ccc(C)cc2C)ccc1OCC(=O)N1CCCCC1`, the z-score was -0.105.
With `COc1ccc(-c2csc(NC(=O)CSc3ccc(Br)cc3)n2)c(OC)c1` the figure was -0.107.
With `COc1cc(/C=N/n2c(C)n[nH]c2=S)ccc1OCc1ccccc1` the figure was 0.69.
`Cc1ccc(-n2nnnc2Sc2nc([N+](=O)[O-])nn2C)cc1`: the z-score is -0.273.
With `Cc1ccc(-c2csc3ncnc(NCCN4CCOCC4)c23)cc1` the figure was 0.256; with `CC1=C(C)C(=O)C(N2CCOCC2)=CC1=O`, -0.148; with `CCCCCC(O)CCc1n[nH]c(=S)n1-c1ccccc1` (stereo unspecified), -0.378.
With `COc1cccc(C(=O)Nc2cccc(C(=O)N3CCOCC3)c2)c1` the figure was 0.605; with `Cc1csc(SCc2nnc(-c3ccc(Cl)cc3)o2)n1`, 0.286.
The same measure for `O=C(Nc1cnn(Cc2c(Cl)cccc2Cl)c1)c1ccc([N+](=O)[O-])cc1`: -0.128.
As to `COc1ccc(N2CCN(Cc3oc(CO)cc(=O)c3O)CC2)cc1`, the z-score is -0.152.
Regarding `Cc1cc(C)c(C(CC(=O)c2cccs2)C(C#N)C#N)c(C)c1` (stereo unspecified), the z-score was -0.0198.
